{"source": "the supplement of paper PMC4967469", "note": "pIC50: −log10 of the molar value. A lower IC50 marks a more sensitive line; a fit beyond the top or the lowest dose is shown as a bound at that dose. AUC, from the same fit, is the share of area under the viability curve across the 256-fold dose range; values near 1 show little effect. Where the top dose is marked as inferred, it is not printed in the source and was worked back from the curve model."}
{"compound": "CCn1cc(-c2ccnc3[nH]c(-c4cccc(CN(C)C)c4)cc23)c(-c2ccc(NC(=O)N(C)C)cc2)n1 [GSK1070916]", "experiment": "Viability of human cancer cell lines after 72 h of drug (GDSC screen)", "details": "top dose inferred", "method": "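Human cancer cell lines in 384-well plates, medium with 10% serum, drug for 72 h over a 256-fold dose range (nine 2-fold or five 4-fold steps up to the top dose). Adherent lines were fixed and stained with the nucleic acid dye Syto60, suspension lines read with resazurin; signal relative to control wells, capped at 0 and 100%. One two-parameter sigmoid per drug and line, fitted in a mixed model over all curves with the slope shared within a line.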"}
{"cell line": "Calu-3 (lung adenocarcinoma, adherent, top dose 2.56 µM)", "AUC": 0.942, "pIC50": "< 5.59"}
{"cell line": "Calu-6 (lung adenocarcinoma, adherent, top dose 2.56 µM)", "AUC": 0.974, "pIC50": "< 5.59"}
{"cell line": "Caov-3 (ovary, adherent, top dose 2.56 µM)", "AUC": 0.233, "pIC50": 7.52}
{"cell line": "Caov-4 (ovary, adherent, top dose 2.56 µM)", "AUC": 0.902, "pIC50": "< 5.59"}
{"cell line": "Capan-2 (pancreas, adherent, top dose 2.56 µM)", "AUC": 0.984, "pIC50": "< 5.59"}
{"cell line": "ChaGo-K-1 (non-small cell lung carcinoma, adherent, top dose 2.56 µM)", "AUC": 0.93, "pIC50": "< 5.59"}
{"cell line": "D-247MG (glioma, adherent, top dose 2.56 µM)", "AUC": 0.914, "pIC50": "< 5.59"}
{"cell line": "D-263MG (glioma, adherent, top dose 2.56 µM)", "AUC": 0.982, "pIC50": "< 5.59"}
{"cell line": "D-283MED (medulloblastoma, adherent, top dose 2.56 µM)", "AUC": 0.989, "pIC50": "< 5.59"}
{"cell line": "D-336MG (glioma, adherent, top dose 2.56 µM)", "AUC": 0.884, "pIC50": "< 5.59"}
{"cell line": "D-392MG (glioma, adherent, top dose 2.56 µM)", "AUC": 0.944, "pIC50": "< 5.59"}
{"cell line": "D-423MG (glioma, adherent, top dose 2.56 µM)", "AUC": 0.857, "pIC50": "< 5.59"}
{"cell line": "D-502MG (glioma, adherent, top dose 2.56 µM)", "AUC": 0.955, "pIC50": "< 5.59"}
{"cell line": "D-542MG (glioma, adherent, top dose 2.56 µM)", "AUC": 0.98, "pIC50": "< 5.59"}
{"cell line": "D-566MG (glioma, adherent, top dose 2.56 µM)", "AUC": 0.838, "pIC50": 5.77}
{"cell line": "DAN-G (pancreas, adherent, top dose 2.56 µM)", "AUC": 0.977, "pIC50": "< 5.59"}
{"cell line": "DB (B-cell lymphoma, suspension, top dose 2.56 µM)", "AUC": 0.938, "pIC50": "< 5.59"}
{"cell line": "DBTRG-05MG (glioma, adherent, top dose 2.56 µM)", "AUC": 0.94, "pIC50": "< 5.59"}
{"cell line": "DEL (lymphoid neoplasm, suspension, top dose 2.56 µM)", "AUC": 0.9, "pIC50": 5.69}
{"cell line": "DG-75 (Burkitt lymphoma, suspension, top dose 2.56 µM)", "AUC": 0.977, "pIC50": "< 5.59"}
{"cell line": "DJM-1 (skin, adherent, top dose 2.56 µM)", "AUC": 0.981, "pIC50": "< 5.59"}
{"cell line": "DK-MG (glioma, adherent, top dose 2.56 µM)", "AUC": 0.842, "pIC50": "< 5.59"}
{"cell line": "DMS-53 (small cell lung carcinoma, adherent, top dose 2.56 µM)", "AUC": 0.988, "pIC50": "< 5.59"}
{"cell line": "DMS-79 (small cell lung carcinoma, suspension, top dose 2.56 µM)", "AUC": 0.959, "pIC50": "< 5.59"}
{"cell line": "DMS-114 (small cell lung carcinoma, adherent, top dose 2.56 µM)", "AUC": 0.931, "pIC50": "< 5.59"}
{"cell line": "DMS-273 (small cell lung carcinoma, adherent, top dose 2.56 µM)", "AUC": 0.877, "pIC50": "< 5.59"}
{"cell line": "DND-41 (T-cell leukaemia, suspension, top dose 2.56 µM)", "AUC": 0.67, "pIC50": 6.35}
{"cell line": "DOK (head and neck, adherent, top dose 2.56 µM)", "AUC": 0.971, "pIC50": "< 5.59"}
{"cell line": "DOV13 (ovary, adherent, top dose 2.56 µM)", "AUC": 0.979, "pIC50": "< 5.59"}
{"cell line": "DSH1 (bladder, adherent, top dose 2.56 µM)", "AUC": 0.977, "pIC50": "< 5.59"}
{"cell line": "DU-145 (prostate, adherent, top dose 2.56 µM)", "AUC": 0.983, "pIC50": "< 5.59"}
{"cell line": "DU-4475 (breast, suspension, top dose 2.56 µM)", "AUC": 0.893, "pIC50": 5.69}
{"cell line": "Daoy (medulloblastoma, adherent, top dose 2.56 µM)", "AUC": 0.888, "pIC50": 5.62}
